Results are given in words; binding and its absence hold for the method and conditions named. In cells and extracts the contact can be indirect. Some entries that bind do so weakly or less than the wild type. Tags and fused reporters may be left off the sequences shown.
B1: myc-CCPG1 (full-length, 6x myc) (protein, UniProt Q9ULG6 1-757)
chain: MSENSSDSDSSCGWTVISHEGSDIEMLNSVTPTDSCEPAPECSSLEQEELQALQIEQGESSQNGTVLMEETAYPALEETSSTIEAEEQKIPEDSIYIGTASDDSDIVTLEPPKLEEIGNQEVVIVEEAQSSEDFNMGSSSSSQYTFCQPETVFSSQPSDDESSSDETSNQPSPAFRRRRARKKTVSASESEDRLVAEQETEPSKELSKRQFSSGLNKCVILALVIAISMGFGHFYGTIQIQKRQQLVRKIHEDELNDMKDYLSQCQQEQESFIDYKSLKENLARCWTLTEAEKMSFETQKTNLATENQYLRVSLEKEEKALSSLQEELNKLREQIRILEDKGTSTELVKENQKLKQHLEEEKQKKHSFLSQRETLLTEAKMLKRELERERLVTTALRGELQQLSGSQLHGKSDSPNVYTEKKEIAILRERLTELERKLTFEQQRSDLWERLYVEAKDQNGKQGTDGKKKGGRGSHRAKNKSKETFLGSVKETFDAMKNSTKEFVRHHKEKIKQAKEAVKENLKKFSDSVKSTFRHFKDTTKNIFDEKGNKRFGATKEAAEKPRTVFSDYLHPQYKAPTENHHNRGPTMQNDGRKEKPVHFKEFRKNTNSKKCSPGHDCRENSHSFRKACSGVFDCAQQESMSLFNTVVNPIRMDEFRQIIQRYMLKELDTFCHWNELDQFINKFFLNGVFIHDQKLFTDFVNDVKDYLRNMKEYEVDNDGVFEKLDEYIYRHFFGHTFSPPYGPRSVYIKPCHYSSL
B2: myc-CCPG1 NTD (domain or fragment, UniProt Q9ULG6 1-230)
chain: MSENSSDSDSSCGWTVISHEGSDIEMLNSVTPTDSCEPAPECSSLEQEELQALQIEQGESSQNGTVLMEETAYPALEETSSTIEAEEQKIPEDSIYIGTASDDSDIVTLEPPKLEEIGNQEVVIVEEAQSSEDFNMGSSSSSQYTFCQPETVFSSQPSDDESSSDETSNQPSPAFRRRRARKKTVSASESEDRLVAEQETEPSKELSKRQFSSGLNKCVILALVIAISMG
B3: GFP-CCPG1 (full-length) (protein, UniProt Q9ULG6 1-757)
chain: B1 chain

Protein sequences, listed by entry. Tags and fused reporters are not part of them. Lines headed by an entry give the natural chain unless they say otherwise; changes in a name come on top. Residues count along the entry.
UniProt O95166: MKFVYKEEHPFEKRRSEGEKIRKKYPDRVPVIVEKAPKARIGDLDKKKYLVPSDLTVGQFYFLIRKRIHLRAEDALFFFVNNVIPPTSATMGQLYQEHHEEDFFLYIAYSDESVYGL
UniProt Q9BXW4, residues 1-126: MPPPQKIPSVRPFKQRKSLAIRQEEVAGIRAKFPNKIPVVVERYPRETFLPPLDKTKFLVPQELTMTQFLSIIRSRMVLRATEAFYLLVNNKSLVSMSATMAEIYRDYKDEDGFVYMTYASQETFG

Experiments:
Assay in all cases: pull-down; GST fusion of the ATG8 ortholog batch pre-purified on glutathione Sepharose 4B beads, incubated with HEK lysate of transfected tagged CCPG1 in IGEPAL IP buffer (50 mM Tris-HCl pH 7.5, 150 mM NaCl, 0.5% IGEPAL), 4°C, 2-18 h; immunoblot; only the target purified
GST-GABARAP (human) = GST-GABARAP (human) (UniProt O95166)
GST-LC3C (human) = GST-LC3C (human) (UniProt Q9BXW4)
[1] = biological target: GST-GABARAP mtLDS Y49A L50A (human) (UniProt O95166)

| Binder | binding (GST-GABARAP (human)) | binding (GST-LC3C (human)) | binding [1] |
| --- | --- | --- | --- |
| B1 | binds | binds |  |
| B2 | binds |  | no binding |
| B3 | binds |  |  |

Source: publication PMC5791736
